# Results as given in the supplement of paper PMC8728848.
# The list shows a part of the results.
# Legend:
# Test in all cases: glycan array binding signal (z-score within array); higher = stronger binding
# Settings in all cases: glycan notation: IUPAC condensed, linker removed
# [1] = target: Gal(b1-4)GlcNAc(b1-6)Gal(b1-4)GlcNAc
# Procedure, shortened: (§1)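 Negative Z-scores can be read as non-binding. The Z-score is calculated within each array and then averaged across arrays of one protein sequence at different concentrations or buffers and across linkers. Arrays, 3228 in all, were curated from the Consortium for Functional Glycomics database and kept only where the protein sequence was available.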
# [2] = target: Gal(b1-4)GlcNAc(b1-6)Gal(b1-4)GlcNAc(b1-6)GalNAc
# Procedure, shortened: as §1
# [3] = target: Gal(b1-4)GlcNAc(b1-6)GalNAc
# Procedure, shortened: as §1
# [4] = target: Gal(b1-4)GlcNAc(b1-6)[Gal(b1-3)]GalNAc
# Procedure, shortened: as §1
# Gal3S(b1-3)GalNAc = target: Gal3S(b1-3)GalNAc
# Procedure, shortened: as §1
# Gal3S(b1-3)GlcNAc = target: Gal3S(b1-3)GlcNAc
# Procedure, shortened: as §1
# [5] = target: Gal3S(b1-3)[Fuc(a1-4)]GlcNAc
# Procedure, shortened: as §1
# Gal3S(b1-4)Glc = target: Gal3S(b1-4)Glc
# Procedure, shortened: as §1
# Gal3S(b1-4)Glc6S = target: Gal3S(b1-4)Glc6S
# Procedure, shortened: as §1
# Gal3S(b1-4)GlcNAc = target: Gal3S(b1-4)GlcNAc
# Procedure, shortened: as §1
# Gal3S(b1-4)GlcNAc6S = target: Gal3S(b1-4)GlcNAc6S
# Procedure, shortened: as §1
# [6] = target: Gal3S(b1-4)[Fuc(a1-3)]Glc
# Procedure, shortened: as §1
# Gal3S4S(b1-4)GlcNAc = target: Gal3S4S(b1-4)GlcNAc
# Procedure, shortened: as §1
# Gal3S6S(b1-4)GlcNAc = target: Gal3S6S(b1-4)GlcNAc
# Procedure, shortened: as §1
# Gal3S6S(b1-4)GlcNAc6S = target: Gal3S6S(b1-4)GlcNAc6S
# Procedure, shortened: as §1
# Gal4S(b1-4)GlcNAc = target: Gal4S(b1-4)GlcNAc
# Procedure, shortened: as §1
# Gal4S6S(b1-4)GlcNAc = target: Gal4S6S(b1-4)GlcNAc
# Procedure, shortened: as §1
# Gal6S(b1-4)Glc = target: Gal6S(b1-4)Glc
# Procedure, shortened: as §1
# Gal6S(b1-4)Glc6S = target: Gal6S(b1-4)Glc6S
# Procedure, shortened: as §1
# Gal6S(b1-4)GlcNAc = target: Gal6S(b1-4)GlcNAc
# Procedure, shortened: as §1
# Gal6S(b1-4)GlcNAc6S = target: Gal6S(b1-4)GlcNAc6S
# Procedure, shortened: as §1
# GalNAc(a1-3)Gal = target: GalNAc(a1-3)Gal
# Procedure, shortened: as §1
# GalNAc(a1-3)GalNAc = target: GalNAc(a1-3)GalNAc
# Procedure, shortened: as §1
# GalNAc(b1-3)Gal = target: GalNAc(b1-3)Gal
# Procedure, shortened: as §1
# [7] = target: GalNAc(b1-3)Gal(a1-4)Gal(b1-4)GlcNAc
# Procedure, shortened: as §1
# [8] = target: GalNAc(b1-3)Gal(a1-4)Gal(b1-4)GlcNAc(b1-3)Gal(b1-4)Glc
# Procedure, shortened: as §1
# GalNAc(b1-3)GalNAc = target: GalNAc(b1-3)GalNAc
# Procedure, shortened: as §1
# GalNAc(b1-4)GlcNAc = target: GalNAc(b1-4)GlcNAc
# Procedure, shortened: as §1
# [9] = target: GalNAc(b1-4)GlcNAc(b1-2)Man(a1-3)[GalNAc(b1-4)GlcNAc(b1-2)Man(a1-6)]Man(b1-4)GlcNAc(b1-4)GlcNAc
# Procedure, shortened: as §1
# Glc(a1-4)Glc = target: Glc(a1-4)Glc
# Procedure, shortened: as §1
# Glc(a1-6)Glc(a1-6)Glc = target: Glc(a1-6)Glc(a1-6)Glc
# Procedure, shortened: as §1
# Glc(b1-4)Glc = target: Glc(b1-4)Glc
# Procedure, shortened: as §1
# Glc(b1-6)Glc = target: Glc(b1-6)Glc
# Procedure, shortened: as §1
# GlcA(b1-3)Gal = target: GlcA(b1-3)Gal
# Procedure, shortened: as §1
# GlcA(b1-3)GlcNAc = target: GlcA(b1-3)GlcNAc
# Procedure, shortened: as §1
# GlcA(b1-6)Gal = target: GlcA(b1-6)Gal
# Procedure, shortened: as §1
# [10] = target: GlcNAc(a1-3)Gal(b1-4)GlcNAc
# Procedure, shortened: as §1
# [11] = target: GlcNAc(a1-4)Gal(b1-3)GlcNAc
# Procedure, shortened: as §1
# [12] = target: GlcNAc(a1-4)Gal(b1-4)GalNAc
# Procedure, shortened: as §1
# [13] = target: GlcNAc(a1-4)Gal(b1-4)GlcNAc
# Procedure, shortened: as §1
# [14] = target: GlcNAc(a1-4)Gal(b1-4)GlcNAc(b1-3)Gal(b1-4)Glc
# Procedure, shortened: as §1
# [15] = target: GlcNAc(a1-4)Gal(b1-4)GlcNAc(b1-3)Gal(b1-4)GlcNAc
# Procedure, shortened: as §1
# [16] = target: GlcNAc(a1-4)Gal(b1-4)GlcNAc(b1-3)Gal(b1-4)GlcNAc(b1-3)Gal(b1-4)GlcNAc
# Procedure, shortened: as §1
# [17] = target: GlcNAc(a1-4)Gal(b1-4)GlcNAc(b1-3)Gal(b1-4)[Fuc(a1-3)]GlcNAc(b1-3)Gal(b1-4)[Fuc(a1-3)]GlcNAc
# Procedure, shortened: as §1
# [18] = target: GlcNAc(a1-6)Gal(b1-4)GlcNAc
# Procedure, shortened: as §1
# [19] = target: GlcNAc(b1-2)Gal(b1-3)GalNAc
# Procedure, shortened: as §1
# [20] = target: GlcNAc(b1-2)Man(a1-3)[GlcNAc(b1-2)Man(a1-6)]Man(b1-4)GlcNAc(b1-4)GlcNAc
# Procedure, shortened: as §1
# [21] = target: GlcNAc(b1-2)Man(a1-3)[GlcNAc(b1-2)Man(a1-6)]Man(b1-4)GlcNAc(b1-4)[Fuc(a1-6)]GlcNAc
# Procedure, shortened: as §1
# GlcNAc(b1-3)Gal = target: GlcNAc(b1-3)Gal
# Procedure, shortened: as §1
# [22] = target: GlcNAc(b1-3)Gal(b1-3)GalNAc
# Procedure, shortened: as §1
# GlcNAc(b1-3)Gal(b1-4)Glc = target: GlcNAc(b1-3)Gal(b1-4)Glc
# Procedure, shortened: as §1
# [23] = target: GlcNAc(b1-3)Gal(b1-4)GlcNAc
# Procedure, shortened: as §1
# [24] = target: GlcNAc(b1-3)Gal(b1-4)GlcNAc(b1-3)Gal(b1-4)GlcNAc
# Procedure, shortened: as §1
# GlcNAc(b1-3)GalNAc = target: GlcNAc(b1-3)GalNAc
# Procedure, shortened: as §1
# GlcNAc(b1-3)Man = target: GlcNAc(b1-3)Man
# Procedure, shortened: as §1
# [25] = target: GlcNAc(b1-3)[GlcNAc(b1-4)][GlcNAc(b1-6)]GlcNAc
# Procedure, shortened: as §1
# [26] = target: GlcNAc(b1-3)[GlcNAc(b1-6)]Gal(b1-4)GlcNAc
# Procedure, shortened: as §1
# [27] = target: GlcNAc(b1-3)[GlcNAc(b1-6)]GalNAc
# Procedure, shortened: as §1
# [28] = target: GlcNAc(b1-4)Gal(b1-4)GlcNAc
# Procedure, shortened: as §1
# GlcNAc(b1-4)GlcNAc = target: GlcNAc(b1-4)GlcNAc
# Procedure, shortened: as §1
binder,measurement,setting,value
DETC sTCR (Mus musculus) (protein) LDVYLEPVAKTFTVVAGDPASFYCTVTGGDMKNYHMSWYKKNGTNALFLVYKLNSNSTDGGKSNLKGKINISKNQFILDIQKATMKDAGTYYCGSDIGGSSWDTRQMFFGTGIELFVEPKSQPPAKPSVFIMKNGTNVACLVKDFYPKEVTISLRSSKKIVEFDPAIVISPSGKYSAVKLGQYGDSNSVTCSVQHNSETVHSTDFEPYANSFNNEKLPEPENDTQISEPCSSADLVPRGSTTAPSAQLKKKLQALKKKNAQLKWKLQALKKKLAQHHHHHHDSWISQDQLSFTRRPNKTVHISCKLSGVPLHNTIVHWYQLKEGEPLRRIFYGSVKTYKQDKSHSRLEIDEKDDGTFYLIINNVVTSDEATYYCACWDSSGFHKVFAEGTKLIVIPSDKRLDADISPKPTIFLPSVAETNLHKTGTYLCLLEKFFPDVIRVYWKEKDGNTILDSQEGDTLKTNDTYMKFSWLTVPERAMGKEHRCIVKHENNKGGADQEIFFPSIKKVAVSTKPTTCSSADLVPRGSTTAPSAQLEKELQALEKENAQLEWELQALEKELAQLNDIFEAQKIEW,glycan array binding signal (z-score),[1],1.48
same,glycan array binding signal (z-score),[2],-0.482
same,glycan array binding signal (z-score),[3],-0.211
same,glycan array binding signal (z-score),[4],0.963
same,glycan array binding signal (z-score),Gal3S(b1-3)GalNAc,-0.476
same,glycan array binding signal (z-score),Gal3S(b1-3)GlcNAc,-0.401
same,glycan array binding signal (z-score),[5],0.144
same,glycan array binding signal (z-score),Gal3S(b1-4)Glc,-0.234
same,glycan array binding signal (z-score),Gal3S(b1-4)Glc6S,-0.454
same,glycan array binding signal (z-score),Gal3S(b1-4)GlcNAc,2.74
same,glycan array binding signal (z-score),Gal3S(b1-4)GlcNAc6S,0.151
same,glycan array binding signal (z-score),[6],0.85
same,glycan array binding signal (z-score),Gal3S4S(b1-4)GlcNAc,-0.546
same,glycan array binding signal (z-score),Gal3S6S(b1-4)GlcNAc,-0.25
same,glycan array binding signal (z-score),Gal3S6S(b1-4)GlcNAc6S,0.465
same,glycan array binding signal (z-score),Gal4S(b1-4)GlcNAc,-0.27
same,glycan array binding signal (z-score),Gal4S6S(b1-4)GlcNAc,-0.471
same,glycan array binding signal (z-score),Gal6S(b1-4)Glc,-0.381
same,glycan array binding signal (z-score),Gal6S(b1-4)Glc6S,-0.376
same,glycan array binding signal (z-score),Gal6S(b1-4)GlcNAc,-0.4
same,glycan array binding signal (z-score),Gal6S(b1-4)GlcNAc6S,-0.529
same,glycan array binding signal (z-score),GalNAc(a1-3)Gal,-0.71
same,glycan array binding signal (z-score),GalNAc(a1-3)GalNAc,-0.567
same,glycan array binding signal (z-score),GalNAc(b1-3)Gal,0.005
same,glycan array binding signal (z-score),[7],-0.629
same,glycan array binding signal (z-score),[8],-0.289
same,glycan array binding signal (z-score),GalNAc(b1-3)GalNAc,-0.204
same,glycan array binding signal (z-score),GalNAc(b1-4)GlcNAc,-0.411
same,glycan array binding signal (z-score),[9],1.48
same,glycan array binding signal (z-score),Glc(a1-4)Glc,1.66
same,glycan array binding signal (z-score),Glc(a1-6)Glc(a1-6)Glc,-0.174
same,glycan array binding signal (z-score),Glc(b1-4)Glc,1.68
same,glycan array binding signal (z-score),Glc(b1-6)Glc,-0.344
same,glycan array binding signal (z-score),GlcA(b1-3)Gal,-0.521
same,glycan array binding signal (z-score),GlcA(b1-3)GlcNAc,0.148
same,glycan array binding signal (z-score),GlcA(b1-6)Gal,-0.468
same,glycan array binding signal (z-score),[10],-0.42
same,glycan array binding signal (z-score),[11],-0.245
same,glycan array binding signal (z-score),[12],3.96
same,glycan array binding signal (z-score),[13],0.237
same,glycan array binding signal (z-score),[14],-0.469
same,glycan array binding signal (z-score),[15],0.076
same,glycan array binding signal (z-score),[16],-0.493
same,glycan array binding signal (z-score),[17],5.91
same,glycan array binding signal (z-score),[18],-0.719
same,glycan array binding signal (z-score),[19],0.055
same,glycan array binding signal (z-score),[20],-0.435
same,glycan array binding signal (z-score),[21],0.449
same,glycan array binding signal (z-score),GlcNAc(b1-3)Gal,1.33
same,glycan array binding signal (z-score),[22],-0.306
same,glycan array binding signal (z-score),GlcNAc(b1-3)Gal(b1-4)Glc,-0.656
same,glycan array binding signal (z-score),[23],-0.215
same,glycan array binding signal (z-score),[24],-0.626
same,glycan array binding signal (z-score),GlcNAc(b1-3)GalNAc,1.69
same,glycan array binding signal (z-score),GlcNAc(b1-3)Man,-0.035
same,glycan array binding signal (z-score),[25],-0.407
same,glycan array binding signal (z-score),[26],-0.67
same,glycan array binding signal (z-score),[27],-0.395
same,glycan array binding signal (z-score),[28],-0.766
same,glycan array binding signal (z-score),GlcNAc(b1-4)GlcNAc,-0.517
